{"source": "paper PMC7819943", "about": "“Rice protein-binding microarrays: a tool to detect cis-acting elements near promoter regions in rice”", "note": "The other results are listed elsewhere or left out.", "data": [{"molecular_target": "T1, OsWOX13 (Oryza sativa, UniProt Q5QMM3 1-267)", "T1 sequence": "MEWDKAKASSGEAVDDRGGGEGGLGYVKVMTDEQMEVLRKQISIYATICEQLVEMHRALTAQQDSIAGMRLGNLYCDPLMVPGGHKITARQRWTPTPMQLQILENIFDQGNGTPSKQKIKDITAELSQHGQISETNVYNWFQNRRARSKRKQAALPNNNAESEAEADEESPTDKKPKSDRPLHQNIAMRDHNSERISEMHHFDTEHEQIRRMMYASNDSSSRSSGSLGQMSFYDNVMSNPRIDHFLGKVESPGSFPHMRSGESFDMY", "experiment": "protein-binding microarray (RPBM); PBS, 2% BSA, 51.3 ng/ul salmon testes DNA, 50 uM zinc acetate, 200 nM TF, 25 C, 1 h; high values mean tight binding", "settings": "protein: recombinant; tags: N-terminal polyhistidine and DsRed monomer fusion (pET32a); label: CyDye5-dUTP incorporated in the synthesized complementary strand; 3' TTTTT single-stranded linker to array surface; dsDNA, one strand shown", "outline": "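The binding signal for each feature is its fluorescence intensity in arbitrary units. An Axon 4000B scanner was used to read a custom Agilent array that had been made double-stranded with Cy5-dUTP primer extension, blocked with 2% BSA, incubated at 25 °C for 1 h with 200 nM protein in PBS, 2% BSA, salmon testes DNA and 50 µM zinc acetate, and washed. The protein was an N-terminal polyhistidine–DsRed transcription factor fusion from E. coli BL21-CodonPlus, purified on Ni–NTA.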", "values": [{"sequence": "CATACATAATGTTTATTACCAATCATATAACTCTGGTTTGCGGAGTCACCTAGTGCAG", "binding signal": "15500 fluorescence intensity (a.u.)"}, {"sequence": "ACATGATTTGTGCTCCATGACCTCTTTCTTCTATTATCTACGGAGTCACCTAGTGCAG", "binding signal": "18600 fluorescence intensity (a.u.)"}, {"sequence": "CAAGTTCCAATCAGATTTTCAGCTGGTCACTGTCTTGCTGCGGAGTCACCTAGTGCAG", "binding signal": "6810 fluorescence intensity (a.u.)"}, {"sequence": "CTCATTTACTTACAAATAGTATCAATCATGCAATTTGGTTCGGAGTCACCTAGTGCAG", "binding signal": "6100 fluorescence intensity (a.u.)"}, {"sequence": "TTTGTTCTAATCATCCTTCGATTGGGTTGGGTTGAGCAATCGGAGTCACCTAGTGCAG", "binding signal": "4470 fluorescence intensity (a.u.)"}, {"sequence": "ATCATACGTAATTGTTAGTAAGACGCAAGACCATGTTATGCGGAGTCACCTAGTGCAG", "binding signal": "6230 fluorescence intensity (a.u.)"}, {"sequence": "GAAAACACCTGATTTGTTTATTGAAGTTCGGACCCACGGACGGAGTCACCTAGTGCAG", "binding signal": "7080 fluorescence intensity (a.u.)"}, {"sequence": "AAGATTGATATTTAGTATTAAGATAACAAGATAAGTTGTTCGGAGTCACCTAGTGCAG", "binding signal": "28200 fluorescence intensity (a.u.)"}, {"sequence": "GTTCAAATGTAATTATTTACCACTTTATTTAATCTTAATACGGAGTCACCTAGTGCAG", "binding signal": "5400 fluorescence intensity (a.u.)"}, {"sequence": "TTCAAGACAGCCATTTAATTAATACTTTGCACGAAACTAACGGAGTCACCTAGTGCAG", "binding signal": "9920 fluorescence intensity (a.u.)"}, {"sequence": "GATCTGTCACTTGACTATCTATCACGGGAAGGCCCAGTTTCGGAGTCACCTAGTGCAG", "binding signal": "4820 fluorescence intensity (a.u.)"}, {"sequence": "ATATCTAATTAACAAGCTTCCATCGATTGATTCCCTCAGACGGAGTCACCTAGTGCAG", "binding signal": "28000 fluorescence intensity (a.u.)"}, {"sequence": "TGGTGTGGGGATTAAAGAGGATTAGAGGGGATTGAGAGAGCGGAGTCACCTAGTGCAG", "binding signal": "3330 fluorescence intensity (a.u.)"}, {"sequence": "ATGACGAGATAAATTAAGTAAGAGGCCTATAAAGGAGTAGCGGAGTCACCTAGTGCAG", "binding signal": "18200 fluorescence intensity (a.u.)"}, {"sequence": "GAGCTATTAGATTGGCTATAGATAAATTAGAGCTAGTAGTCGGAGTCACCTAGTGCAG", "binding signal": "31600 fluorescence intensity (a.u.)"}, {"sequence": "CTATGTCTGTGTTTGATGATTGCAAGCTGATGTGGGATGGCGGAGTCACCTAGTGCAG", "binding signal": "9180 fluorescence intensity (a.u.)"}, {"sequence": "GGAGTGCAAATTAGTCCGGATTTTACTGAATATTGATAACCGGAGTCACCTAGTGCAG", "binding signal": "3300 fluorescence intensity (a.u.)"}, {"sequence": "GACACTGGATTACCAATAGACAGATGAACCATGTGTGCCCCGGAGTCACCTAGTGCAG", "binding signal": "9810 fluorescence intensity (a.u.)"}, {"sequence": "ACCGGATGATTAATTGAGTATTCATTATTTTAGACTTGATCGGAGTCACCTAGTGCAG", "binding signal": "36400 fluorescence intensity (a.u.)"}, {"sequence": "CATGTGAAAGTTTTGACTGATAGCCGATTGGGCTATTTGGCGGAGTCACCTAGTGCAG", "binding signal": "4340 fluorescence intensity (a.u.)"}, {"sequence": "AATTGCGTCATGATTTGACAATGTGGTGCTACAGTAAACACGGAGTCACCTAGTGCAG", "binding signal": "4960 fluorescence intensity (a.u.)"}, {"sequence": "GTAATAAACTCATTGATGAACGGTTCAGATCATGTCCTGTCGGAGTCACCTAGTGCAG", "binding signal": "7460 fluorescence intensity (a.u.)"}, {"sequence": "AGCTAACTTCATATTGGAAGAGATTGATCATTTGCATGTACGGAGTCACCTAGTGCAG", "binding signal": "4080 fluorescence intensity (a.u.)"}, {"sequence": "TTACTAATTAGGAGGAGTATTAATGTATTATTACACGTAACGGAGTCACCTAGTGCAG", "binding signal": "18500 fluorescence intensity (a.u.)"}, {"sequence": "GAAAATTAACAAGTTTAAGGAGTCAGCATGGAAATTCGTCCGGAGTCACCTAGTGCAG", "binding signal": "9750 fluorescence intensity (a.u.)"}, {"sequence": "TGTTATATAAATTTGATCAAAATTAAAGAAGTTTGACTTACGGAGTCACCTAGTGCAG", "binding signal": "11900 fluorescence intensity (a.u.)"}, {"sequence": "AATTACTGATTACTAGTATTAAACAAGAGTTTAGTGTCGCCGGAGTCACCTAGTGCAG", "binding signal": "23700 fluorescence intensity (a.u.)"}, {"sequence": "TGAGAAAGGTTGTGATTGATTGAGAAGAGAAAAGTGAAAACGGAGTCACCTAGTGCAG", "binding signal": "27300 fluorescence intensity (a.u.)"}, {"sequence": "ACTTAATTATGTTGTGGTTAATTAGCCCCGAAATGGTCGTCGGAGTCACCTAGTGCAG", "binding signal": "52900 fluorescence intensity (a.u.)"}, {"sequence": "TAGGTGATTAGTTGATTAATTAATCTTGAGCTCCTCCTAACGGAGTCACCTAGTGCAG", "binding signal": "58800 fluorescence intensity (a.u.)"}, {"sequence": "GGGGTGTGATCGGTCAATTTCAAATTGGATAATGGCTAAACGGAGTCACCTAGTGCAG", "binding signal": "8330 fluorescence intensity (a.u.)"}, {"sequence": "AACCCTGATTATCATATGATCTTAGGAGTTACTCGACGCCCGGAGTCACCTAGTGCAG", "binding signal": "34700 fluorescence intensity (a.u.)"}, {"sequence": "CCGCAACAATCAATGGATGAGATTCATCTTGCGATCCTTCCGGAGTCACCTAGTGCAG", "binding signal": "8140 fluorescence intensity (a.u.)"}, {"sequence": "CGGTTAGATTACATTGGTACCTCATGATATCTCGTACCTCCGGAGTCACCTAGTGCAG", "binding signal": "4680 fluorescence intensity (a.u.)"}, {"sequence": "AGGCTGATTGCCAAAACTCAATGCCAGCTTGAAGGCAGTACGGAGTCACCTAGTGCAG", "binding signal": "8420 fluorescence intensity (a.u.)"}, {"sequence": "TTAACCAAATTTTCAATTTCAACGTGAACTAAACACATGTCGGAGTCACCTAGTGCAG", "binding signal": "6820 fluorescence intensity (a.u.)"}, {"sequence": "GTGATTTGTTCGAAATTGTGCTAGTTCCAACCAAAATACACGGAGTCACCTAGTGCAG", "binding signal": "12500 fluorescence intensity (a.u.)"}, {"sequence": "TTTTGTGATAATTTTATTACTAAATCTATAGTTTGGTGATCGGAGTCACCTAGTGCAG", "binding signal": "5520 fluorescence intensity (a.u.)"}, {"sequence": "AGATAATTTTAAATTGATGATAGCCGTGTAGTTGTGCGGGCGGAGTCACCTAGTGCAG", "binding signal": "44600 fluorescence intensity (a.u.)"}, {"sequence": "ATTAAGTCTAATTAATCTGTTATTAGCAAATGTTTACTGTCGGAGTCACCTAGTGCAG", "binding signal": "11100 fluorescence intensity (a.u.)"}, {"sequence": "GAACTTAATTTTGAGTCATGCCAAAACGTCGAAATTTCACCGGAGTCACCTAGTGCAG", "binding signal": "10100 fluorescence intensity (a.u.)"}, {"sequence": "CACGTAATCACGGCATGATCCAACGGTGCTGGATGACTGACGGAGTCACCTAGTGCAG", "binding signal": "4760 fluorescence intensity (a.u.)"}]}]}
